Sequences and labels used below:
T1: UNK ZnF1-3 (human, UniProt Q9C0B0 31-174)
T1 sequence: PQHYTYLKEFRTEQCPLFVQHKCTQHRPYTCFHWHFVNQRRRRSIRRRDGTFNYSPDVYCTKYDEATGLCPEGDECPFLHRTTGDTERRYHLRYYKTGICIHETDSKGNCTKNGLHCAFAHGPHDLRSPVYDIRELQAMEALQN

B1: chr5:40767622:40767623:-_ENSG00000132356_ENST00000397128|hu_mus|hu_hu_hu_mus_False|28_38 (ssRNA)
RNA: GGGAGUUCUACAGUCCGACGAUCAUCUUUUAUUGCGGCCCUCUUCAUGGGAUCCACCUGCAGCAUAUGUUUCAAAAGGCUGAUUACUGAAGGGUUUAAAUAUUGAGGGGUAUAGAAGAUCCCAUCACAUAUCUUCUUAAAAAGCAACAGAGGAUUGAGCAUCA
B2: chr14:76904430:76904431:+_ENSMUSG00000022010_ENSMUST00000022587|mus_mus|mus_mus_mus_hu_True|38_88 (ssRNA)
RNA: GGGAGUUCUACAGUCCGACGAUCUGCAGCCAAAAACACCCUCGUGGCGGGAGGGAGGGAACACCAGCAGCCUUGUAUAAGCUAGAUAAAAUCUUCUAGCUGUCUGCAGCCCAGGGAGAAACAGAAAACGGCAGCCCUAAUUUACAACAGAGGAUUGAGCAUCA
B3: chr5:95130247:95130248:+_ENSG00000164292_ENST00000379982|hu_mus|motif|central (ssRNA)
RNA: GGGAGUUCUACAGUCCGACGAUCAUGCCUUUGAGCAUCUUGCAGAACCAUUUCUGCCAAUAUAUGCUAUGAGAGAAACGGACUCUGCCUUUUAUCCCAGACACCAUCGUCUCUACAUCUAGGAUAUCUUUGAUGUACAUAAUUCAACAGAGGAUUGAGCAUCA
B4: chr7:103008174:103008175:+_ENSG00000161057_ENST00000292644|hu_hu|motif|central (ssRNA)
RNA: GGGAGUUCUACAGUCCGACGAUCACUCAUUGAACGAGCGUGAAUCUUAAAUAUGUGGGUCCGACCCUCUAGAUCGGGCAAGCGGAAUUCAAUUUUUCUAUCCAAUCUCCCUGGCCUCAUCAGUGCUGGAUCCAAAGUAUCAGGCAACAGAGGAUUGAGCAUCA
B5: chr7:149068622:149068623:-_ENSMUSG00000025139_ENSMUST00000001950|mus_hu|mus_mus_mus_hu_False|38_98 (ssRNA)
RNA: GGGAGUUCUACAGUCCGACGAUCGUGAGGCCUCUGAGUGAGGUUCCUGGUCUGUCCUGGGUUAGAGUUGUUAAUAUCACGGAACAUACCAUCUAGAGAGGUUCUGCCCCGCCUGACACCUUCAUUCCCAAUGGAGAAGAAAUCCAACAGAGGAUUGAGCAUCA
B6: chr4:124323543:124323544:+_ENSG00000164056_ENST00000339241|hu_mus|FALSE|FALSE (ssRNA)
RNA: GGGAGUUCUACAGUCCGACGAUCGCCCCUGCACAGCUUCAGGCAGCCCUUGGCGGGAGGGUAGCAGAGCAAGCAGGGUAGGCACAAAGACAGGGCUCCCAUGCACAGGUAUCUGGAGCAGCAGUGGGACUGUGAACAGGAGCACAACAGAGGAUUGAGCAUCA
B7: chr4:95690885:95690886:+_ENSMUSG00000028572_ENSMUST00000156910|mus_mus|mus_mus_mus_hu_False|38_78 (ssRNA)
RNA: GGGAGUUCUACAGUCCGACGAUCUUUAGAAAAUGUUAAAUACCAUGCUAAAAUAUUGUAAUUUUAAUAUUUUAUUUUACCAGAAGUCACAGGCAAGCAGACACCAUAAGAAUAUAUGAAAAUGAAACUCAACAAUAUAACUGUCAACAGAGGAUUGAGCAUCA
B8: chr12:39756943:39756944:-_ENSG00000139116_ENST00000544797|hu_mus|hu_hu_hu_mus_False|18_48 (ssRNA)
RNA: GGGAGUUCUACAGUCCGACGAUCGGUUUGGCUGUUACCCCCAAGGGAAUCCUGCAAGAGUCUUGUCAGCUUAGAGUCUCUGUAAGGGACAUGUGUGGCUCUCUUGCUCUUGUCCCCCAAGGCACUUAUUACAUUCCCAAGAGCCAACAGAGGAUUGAGCAUCA
B9: chr6:31700130:31700131:-_ENSG00000213719_ENST00000375779|hu_mus|FALSE|FALSE (ssRNA)
RNA: GGGAGUUCUACAGUCCGACGAUCAUCUUCGGCGCUGGUUUCAUCCACUUCUUCUGGGAGGGGGGAUGUCAGGUAAUUGUCUAGAACCUUCAGGGCUUUCAGGAGUCCCUUCUCUAGGUUGUCAUUGAGGGCUGGGUUUGAGUUCAACAGAGGAUUGAGCAUCA
B10: chr6:114281168:114281169:-_ENSG00000196591_ENST00000368632|hu_hu|hu_hu_hu_mus_True|18_78 (ssRNA)
RNA: GGGAGUUCUACAGUCCGACGAUCUUCCAUUUUUCGGUAUAAACCAUAAUUUAGCAGCAAGUUAUGGGUCAUCCGGAUUCUAUGAGGCUUCAUGGGAUGACCCUGGCCAUAAUAAUAAUUUCCAAUAUCACCAUCAUAGUAGUACAACAGAGGAUUGAGCAUCA
B11: chr9:4385736:4385737:+_ENSMUSG00000041124_ENSMUST00000047173|mus_mus|FALSE|FALSE (ssRNA)
RNA: GGGAGUUCUACAGUCCGACGAUCCUUGGCACUAAUGACAUCUUGGACUGGGUAAUUCUUUCUUGUGAAGACAACUAUGCUAAACAUGGUGAAGCCUCUCCUGAGGCUGGUAGCAUCCUACACCCAUUUACUUUGACCACCAAACAACAGAGGAUUGAGCAUCA
B12: chr5:132440482:132440483:+_ENSG00000170606_ENST00000304858|hu_hu|FALSE|FALSE (ssRNA)
RNA: GGGAGUUCUACAGUCCGACGAUCUUAAAGCAUAAUUAGAGCUCCUGCCAUGUAAGUCAUAAUGAAAAGUCUGCUGGAUAGCUAGAGCUGUAGCUAUAGCUCAACUUUCCAAAACAAACUUAUUCUUGUAGACACAUGGUUAAACAACAGAGGAUUGAGCAUCA
B13: 90060176_90060296_4292_3pUTR_ENSG00000197147_ENST00000439853|human|control|control (ssRNA)
RNA: GGGAGUUCUACAGUCCGACGAUCAUUCAUUAAAAAUAUGCAUAAUAAAAGGCCAAGCACAAAGCUCUUUAUAAAAAGGAGCAAAAUGUAUUUUCCAGAAGAGUUAGAUAAAGGCAUGAGAUGAAUUUCAGUUAAAUGGAUCUACAACAGAGGAUUGAGCAUCA
B14: chr7:149068622:149068623:-_ENSMUSG00000025139_ENSMUST00000001950|mus_hu|mus_mus_mus_hu_False|8_58 (ssRNA)
RNA: GGGAGUUCUACAGUCCGACGAUCGUGAGGCCUCUGAGUGUGGCUUGUGGUCUGUCCUGGGUUAGAGUUGUUAAUAUCACUAAGUGGACCAUCUAGAACGUUCCAGUCCCGCCUGACACCUUCAUUCGCAAGAGGGCAGAAAUCCAACAGAGGAUUGAGCAUCA
B15: chr16:71807222:71807223:-_ENSG00000166747_ENST00000299980|perfect_dup|motif|central (ssRNA)
RNA: GGGAGUUCUACAGUCCGACGAUCUCCUGCAAGAUCUCUGCACAUCUCUGAGGAGCCCAUGCAGCCGAGGGUACAAAGUGCGGACCCCUGUACGAAUUGCGUGCUAUGAUUAAGAUCAUUCUUGAUACAGUUGGUCAUGAGAAGCAACAGAGGAUUGAGCAUCA
B16: 82950117_82950237_576_3pUTR_ENSG00000005700_ENST00000306270|human|control|control (ssRNA)
RNA: GGGAGUUCUACAGUCCGACGAUCCUCCCCUUUGUUACCACAGAAAGGACAUCCAAAGCAUGCUUCAGGGAUCGACACUUUGAUGUGCAGUCAGGCAUGGGUGAACUCAUCCUAACUGUUUUUAUACCACUUACUUCAGAAUCGCAACAGAGGAUUGAGCAUCA
B17: chr11:46405157:46405158:+_ENSG00000110492_ENST00000395566|hu_hu|hu_hu_hu_mus_False|1_88 (ssRNA)
RNA: GGGAGUUCUACAGUCCGACGAUCCCCUCCCCACUUUGGGCACUUGGUGAGAGGGACAGAGGACAGGCGUGAUUGACAGAGCUGACAGGAAGACAAAAGGCACUGGUGGGUUAUAUCUUGGGCCUGUGGGAGAGGAGGCGUGGGCAACAGAGGAUUGAGCAUCA
B18: chr1:118502009:118502010:+_ENSG00000065183_ENST00000349139|hu_hu|FALSE|FALSE (ssRNA)
RNA: GGGAGUUCUACAGUCCGACGAUCCGUUAGAAUCAACUUCUCCCUCUUUUUCCUCUUCCUCUUCUUCUCUUCCAAGUGGCUAGUAGCAUCAGCAAAAAACAUAACUUCACUUUUUGCCUCGCAUUCCCUCUUGAGAUAAUCAAGCAACAGAGGAUUGAGCAUCA
B19: chr4:57314706:57314707:+_ENSG00000128050_ENST00000264221|hu_mus|hu_hu_hu_mus_True|1_78 (ssRNA)
RNA: GGGAGUUCUACAGUCCGACGAUCCAGAAUUUCAAAAAUAGCUUGUGUGGCAUGACUCAUGAUAUCCACUUCAGUCUGCCCUAUAACAAGGCCAGCAAAACAGAAUUUUGCAGCAAUGAGUUGCUCCUCAGACCACUGUGGGUCCAACAGAGGAUUGAGCAUCA
B20: chrX:160370135:160370136:+_ENSMUSG00000031367_ENSMUST00000069041|mus_mus|motif|central (ssRNA)
RNA: GGGAGUUCUACAGUCCGACGAUCAAUGAAGCAGCUUAGCAAAACAGUAAUACUGACAAGACAUCAUCUUACACCAUUAGCGGACAUGGACAUGAGAGGCAGUGACCAUCUACAGUGUGAAAUGCCACAAGAAGUCAUCAGCAACAACAGAGGAUUGAGCAUCA
B21: 149506530_149506650_4406_3pUTR_ENSMUSG00000003452_ENSMUST00000086829|mouse|control|control (ssRNA)
RNA: GGGAGUUCUACAGUCCGACGAUCAAGUUAAGGCUACCUGACAAAGACAAGGAGUCAGGGUUAGGCGCAGUUAUGUGGGCAGCACUUGAGAACUGAGGAAUCCAAGUUAGACCUUACAGCUCAACUAGCUGUUGUCCUUGUUUUCAACAGAGGAUUGAGCAUCA
B22: chr1:1735927:1735928:-_ENSG00000078369_ENST00000378609|hu_mus|FALSE|FALSE (ssRNA)
RNA: GGGAGUUCUACAGUCCGACGAUCCAGCUCACGACUCACACGCACAUUCCCUUCACGAGUUUUCAGGUUGUAAAUGGAGCAGAUGUUAUCCAGGCCACCACAGGCCACAUAAUUCCCAGAAGGAGCGUAUGCGCAGGUCAUGACCAACAGAGGAUUGAGCAUCA

This is one part of the list.

Drawing on PMC12136788, this text covers binding signal for 22 molecules.

This test concerns the target T1, UNK ZnF1-3. Briefly: nsRBNS (natural sequence RNA bind-n-seq); RBNS binding buffer (assumed for nsRBNS): 25 mM Tris pH 7.5, 150 mM KCl, 3 mM MgCl2, 0.01% Triton X-100, 500 ug/ml BSA, 20 U/ml SUPERase-In, 4 C; UNK is unkempt and MSI1 is Musashi-1; names of the RNAs are library labels; protein concentration not given here; high values mean tight binding.
The molecule B1 yielded a binding signal of 1.27 enrichment R. The value for B2 was 2.57 enrichment R; that for B3 was 0.715 enrichment R; that for B4 was 0.786 enrichment R. As for B5, the binding signal stood at 0.69 enrichment R. As to B6, the binding signal turned out to be 1.26 enrichment R. In turn, B7 returned a binding signal of 2.21 enrichment R. Molecule B8 came in with a binding signal of 0.657 enrichment R. To B9 belongs 0.769 enrichment R. As for B10, the binding signal came out at 0.688 enrichment R. B11: the binding signal came out at 0.693 enrichment R.

B12: the binding signal is 0.424 enrichment R. B13 yielded a binding signal of 2.02 enrichment R.

Molecule B14 showed a binding signal of 1.11 enrichment R. B15 registered a binding signal of 1.33 enrichment R. To B16 belongs 1.05 enrichment R. B17: the binding signal was determined as 3.09 enrichment R. To B18 belongs 0.933 enrichment R. The value for B19 was 0.975 enrichment R; that for B20 was 1.62 enrichment R; that for B21 was 1.03 enrichment R.

B22 gave a binding signal of 1.63 enrichment R.
